Source: PMC4336329 (PLoS ONE, 2015)
The campaign covered roughly 310,000 compounds. About 14,000 (4.5%) showed an effect of 50% or more. The effect is printed as a negative number. This is one part of the list.

Biological target: human ether-à-go-go-related gene (hERG) potassium channel (human, UniProt Q12809)
Experiment: primary screen, population patch clamp on CHO cells stably expressing hERG
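Further: peak tail current of the secondary pulse compared with the same well before compound.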

Sequence of human ether-à-go-go-related gene (hERG) potassium channel (Q12809 whole entry, looked up): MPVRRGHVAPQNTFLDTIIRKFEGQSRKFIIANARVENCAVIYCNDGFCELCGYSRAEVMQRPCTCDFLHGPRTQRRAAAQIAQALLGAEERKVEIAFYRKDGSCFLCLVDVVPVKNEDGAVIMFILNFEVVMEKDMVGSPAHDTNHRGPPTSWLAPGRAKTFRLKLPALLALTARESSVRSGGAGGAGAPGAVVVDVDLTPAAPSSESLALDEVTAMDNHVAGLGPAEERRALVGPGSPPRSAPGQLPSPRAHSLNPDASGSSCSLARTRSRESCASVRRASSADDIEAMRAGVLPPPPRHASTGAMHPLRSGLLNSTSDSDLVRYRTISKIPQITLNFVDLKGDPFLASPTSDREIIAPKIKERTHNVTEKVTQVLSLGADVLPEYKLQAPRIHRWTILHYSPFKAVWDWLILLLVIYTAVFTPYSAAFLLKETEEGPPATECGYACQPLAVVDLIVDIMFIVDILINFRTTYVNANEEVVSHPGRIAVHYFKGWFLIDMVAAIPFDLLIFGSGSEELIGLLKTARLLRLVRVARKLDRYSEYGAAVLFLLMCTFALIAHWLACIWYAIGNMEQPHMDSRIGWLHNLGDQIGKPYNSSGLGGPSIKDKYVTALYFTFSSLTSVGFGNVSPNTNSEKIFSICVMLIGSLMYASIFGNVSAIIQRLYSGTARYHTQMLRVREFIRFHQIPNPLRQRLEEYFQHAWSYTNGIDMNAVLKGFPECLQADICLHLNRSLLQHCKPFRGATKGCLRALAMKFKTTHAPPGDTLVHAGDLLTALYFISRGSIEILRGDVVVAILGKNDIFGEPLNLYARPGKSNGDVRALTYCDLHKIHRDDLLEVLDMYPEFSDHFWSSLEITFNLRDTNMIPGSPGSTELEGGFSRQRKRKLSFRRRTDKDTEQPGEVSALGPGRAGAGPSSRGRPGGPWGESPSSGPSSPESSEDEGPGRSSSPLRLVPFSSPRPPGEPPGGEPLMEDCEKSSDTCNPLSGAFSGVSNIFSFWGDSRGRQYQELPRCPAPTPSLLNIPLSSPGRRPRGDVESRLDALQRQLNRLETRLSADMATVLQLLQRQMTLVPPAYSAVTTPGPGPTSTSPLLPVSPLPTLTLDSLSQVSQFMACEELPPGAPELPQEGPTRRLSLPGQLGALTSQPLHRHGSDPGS

Row | SMILES | hERG current change (%, negative = inhibition) at 10uM
1 | COCC(C)NC(=O)c1cc2cc(OC)ccc2[nH]1 (centres unmarked) | 15.5%
2 | O=C(Nc1ccc(S(=O)(=O)NCC2CCCO2)cc1)c1ccc(Cl)cc1[N+](=O)[O-] (centres unmarked) | -19.6%
3 | COc1ccc(N2CCN(CC(=O)NC(=O)NCc3ccco3)CC2)cc1 | -9.2%
4 | Cc1ccc(-c2c(C)n([O-])c3c([n+]2=O)CCC3)o1 | 9.36%
5 | COc1ccc(S(=O)(=O)N(CC(=O)NCc2ccncc2)c2ccc(C)cc2)cc1OC | -6.77%
6 | CC(=O)c1ccccc1NC(=O)CCNC(=O)c1ccco1 | 20.6%
7 | N#Cc1c(SCC(N)=O)nc2c(c1-c1ccc(O)cc1)CCCC2 | 4.9%
8 | CCNC(=O)NC(=O)C(C)OC(=O)C1CCN(S(=O)(=O)c2ccc(C)c(C)c2)CC1 (centres unmarked) | 13.5%
9 | Cc1cc(C(C)C)n2c(nc3ccccc32)c1C#N | 15.6%
10 | CCOc1ccc(N2CC(C(=O)NCCN3C(=O)S/C(=C\c4cccnc4)C3=O)CC2=O)cc1 (centres unmarked) | -0.149%
11 | CC/C(C)=N/N1C(=O)c2ccccc2NC1(C)CC (centres unmarked) | 9.45%
12 | Cc1ccc(C(=O)N2CCCC(C(F)(F)F)C2)cc1S(=O)(=O)N1CCCCC1 (centres unmarked) | -9.98%
13 | COc1ccc(NC(=O)CSc2nc3nc(-c4cccs4)cc(C(F)(F)F)c3c(=O)[nH]2)c(OC)c1 | -14.5%
14 | CCSc1nc2ccccc2c(=O)n1CCc1ccc(OC)c(OC)c1 | 14.9%
15 | CCOC(=O)N1CCN(C(=O)c2ccc(NS(=O)(=O)c3ccc4[nH]c(=O)[nH]c4c3)cc2)CC1 | -2.72%
16 | Cc1sc2nc(SCC(=O)c3cccs3)n(Cc3ccco3)c(=O)c2c1C | -11.2%
17 | O=C(CSc1nc2cc(C(F)(F)F)ccc2n1Cc1ccccc1)NC1CCS(=O)(=O)C1 (centres unmarked) | -39.4%
18 | Cc1cccc(C)c1N1CCN(S(=O)(=O)c2ccc(F)cc2)CC1 | 2.08%
19 | Cc1cc(Cl)c2cc3ccccc3cc2n1 | 3.05%
20 | Clc1ccc2nc(CSc3ccccc3)cn2c1 | -18.5%
21 | COc1ccc(NS(=O)(=O)c2cc(C)ccc2OC)cc1OC | 10.5%
22 | COc1ccc(C)cc1NS(=O)(=O)c1ccc2c(c1)oc(=O)n2C | 16.2%
23 | COc1ccccc1NC(=O)c1ccc(COc2ccc3c(c2)CCC3)cc1 | 6.53%

Row | SMILES | hERG current change (%, negative = inhibition) at 10uM
24 | COc1ccc(NS(=O)(=O)c2cccc(NC(=O)c3ccc(S(=O)(=O)N4CCCCCC4)cc3)c2)cc1 | 8.25%
25 | Cc1ccc(NC(=O)CCC(=O)N/N=C/c2cc([N+](=O)[O-])ccc2O)cc1 | 1.25%
26 | O=C1OCC/C1=C\c1ccccc1O | 2.18%
27 | CCOc1c(Br)cc(/C=C(\C#N)C(=O)NC2CC2)cc1OC | 1.2%
28 | CC1Cc2ccccc2N1Cc1ccc([N+](=O)[O-])cc1 (centres unmarked) | 17.4%
29 | O=C(Nc1cccnc1)Nc1ccccn1 | 8.4%
30 | Cc1cc(C)n(CCCNC(=O)c2ccc3c(c2)NC(=O)CS3)n1 | -2.48%
31 | COc1cc(C(=O)NC(=S)Nc2ccc(NC(=O)c3ccco3)cc2)cc(OC)c1OC | -6.61%
32 | Cc1ccc(CCN2CC(C(=O)NCCCOC(C)C)CC2=O)cc1 (centres unmarked) | -8.2%
33 | CC(C)Oc1cccc(C2NC(=O)c3ccccc3O2)c1 (centres unmarked) | 7.79%
34 | c1ccc(-n2cnc3ccccc32)nc1 | 13.1%
35 | CC(NC(=O)C1CCCN1C(=O)OCc1ccccc1)c1ccccc1 (centres unmarked) | -6.56%
36 | CCSc1nc2cc(OC)c(OC)cc2c(=O)n1CC | -2.16%
37 | CC1(NC(=O)N2CCOCC2)CCS(=O)(=O)C1 (centres unmarked) | 3.52%
38 | N#CC1=C(SCC(=O)c2ccccc2)NC2=C(C(=O)CCC2)C1c1ccco1 (centres unmarked) | 1.93%
39 | COc1ccc(CN2C(=O)Cc3c2nc(N)c2c(N)nc(N4CCCCC4)c(C#N)c32)cc1 | 18.6%
40 | CC1C=CCC2C(=O)N(c3cccc(C(=O)NCc4ccccc4)c3)C(=O)C12 (centres unmarked) | 0.997%
41 | CC(CCc1ccccc1)NC(=O)c1cncc(Br)c1 (centres unmarked) | -16.6%
42 | CC(=O)NC(C)Cc1ccccc1 (centres unmarked) | -0.103%
43 | CC(=O)Nc1ccc(OC(=O)N2CCCC2)cc1 | -6.82%
44 | CC(C)CN(C#N)c1nc(N2CCOCC2)nc(N2CCOCC2)n1 | -1.58%
45 | O=C1C(=O)N(CCO)C(c2ccc(Br)cc2)/C1=C(\O)c1ccccc1 (centres unmarked) | 4.99%
46 | Cc1cc(/C=C(\C#N)C(=O)NCc2ccco2)c(C)n1C1CCCC1 | -2.42%

Row | SMILES | hERG current change (%, negative = inhibition) at 10uM
47 | CCC(=O)N/C(=N/c1nc(C)cc(C)n1)Nc1ccc(C)cc1 | 5.51%
48 | C/C(=N\NC(=O)CCn1nnc2ccccc21)c1ccco1 | 4.59%
49 | COc1ccc(/C=N/NC(=O)c2nc(-c3ccccc3)n(-c3ccccc3)n2)cc1OC | 1.61%
50 | CN(C)CC1CCCCC1OC(=O)c1ccc(Cl)cc1 (centres unmarked) | -28.5%
51 | COc1ccc(N2CC(O)=C(c3nc(-c4ccc(F)cc4)cs3)C2=N)cc1 | 13.4%
52 | Cc1nc2cc3c(cc2s1)OCO3 | 12%
53 | COC(=O)c1nn(-c2nc(-c3ccc(OC)c(OC)c3)cc(C(F)(F)F)n2)cc1[N+](=O)[O-] | -17.9%
54 | CCC1C(=O)N(C)CCc2ccccc21 (centres unmarked) | 11.4%
55 | O=C(Nc1ccc(O)cc1)/C(=C\c1cccs1)NC(=O)c1ccccc1 | 14.5%
56 | NS(=O)(=O)c1cccc(NC(=O)COC(=O)Cc2ccc(S(=O)(=O)N3CCCCC3)s2)c1 | -2.28%
57 | Cl.NS(=O)(=O)c1cccc(N2CCNCC2)c1 | 11.7%
58 | CCCCCN(C(=O)CCC(=O)OCc1ccccc1C(F)(F)F)c1c(N)n(CCCC)c(=O)[nH]c1=O | -24.7%
59 | COc1ccc(C(=O)Nn2c(CC(C)C)nc3cc(OC)c(OC)cc3c2=O)c(OC)c1 | -9.77%
60 | O=C(NC(=S)N1CCc2ccccc21)C1CCC1 | 20.8%
61 | O=C1CC(NS(=O)(=O)c2ccc(F)cc2)CN1c1ccc2c(c1)OCCO2 (centres unmarked) | -12.4%
62 | Cn1c(=O)c2c(nc(-n3ccnc3)n2Cc2ccccc2)n(C)c1=O | 6.89%
63 | COc1ccc(C)c(NC(=O)C2CC(=O)NC3=C2C(=O)CCC3)c1 (centres unmarked) | -6%
64 | O=C(NCCN1CCCCC1)Nc1ccc(F)cc1 | -13.1%
65 | COc1ccc(S(=O)(=O)N2C3CCC2CC(NC(=O)NC2CCCCC2)C3)cc1 (centres unmarked) | 1.2%
66 | Cc1nc2ccc(S(=O)(=O)NC(CC(C)C)C(=O)O)cc2s1 (centres unmarked) | 22.3%
67 | CCc1c(C)nc2c(Br)cccc2c1SCCC#N | -11.5%
68 | COC(C(=O)N/N=C(\C)CC(=O)Nc1ccc(N(C)C)cc1)c1ccccc1 (centres unmarked) | 15.3%
69 | CCOc1cccc(/C=C2\NC(=S)N(c3ccccc3)C2=O)c1O | 22.2%

Row | SMILES | hERG current change (%, negative = inhibition) at 10uM
70 | O=C(COC(=O)c1ccc(O)cc1O)NC1CC1 | 12.2%
71 | COc1ccc(OC)c(S(=O)(=O)N(C)CC(=O)N2CCN(c3ccccc3)CC2)c1 | -31.9%
72 | CSc1ncccc1C(=O)NCc1ccccc1Cl | -7.25%
73 | CCOC(=O)c1c(NC(=O)Cn2cnc([N+](=O)[O-])n2)sc2c1CCCC2 | 10.1%
74 | COC(=O)c1ccc(C23CC4(C2)[C@H](CN(C)[C@@H]4c2ccccc2)C3c2ccc(Cl)nc2)cc1 (some centres unmarked) | -28%
75 | Cc1cccc(OCc2n(CC(=O)OC3CC(C)CCC3C(C)C)c3ccccc3[n+]2C)c1.[Cl-] (centres unmarked) | -75%
76 | CC(=O)NCCNC(=O)c1ccc(CSc2nc3ccccc3s2)cc1 | -2.51%
77 | Cc1nc(SCC(=O)c2cc3ccccc3oc2=O)c(C#N)c(-c2cccs2)c1C(=O)Nc1ccccc1 | 14.8%
78 | CCCc1nc2sc3c(c2c(=O)n1NC(=O)CCC(=O)OC)CCCC3 | -6.97%
79 | COc1ccc(CN(C)CC(=O)Nc2cccc(S(N)(=O)=O)c2)c(OC)c1OC | 4.19%
80 | COc1ccc(NC(=O)CSCc2ccc(C)cc2)cc1 | -0.289%
81 | Cn1c(=O)c2ncn(CC(=O)NCCOCc3ccccc3Cl)c2n(C)c1=O | 5.02%
82 | CCCC(C)C1(CC)C(=O)NC(=Nc2ccc(F)cc2)NC1=O (centres unmarked) | 17.5%
83 | CCc1ccccc1N1CN(Cc2ccco2)CNC1=S | 12.6%
84 | O=c1cc(C(Cl)(Cl)Cl)oc2c1ccc1ccccc12 | 10.6%
85 | CN(C)CCCN(C(=O)c1sc2ccccc2c1Cl)c1nc2ccc(F)cc2s1.Cl | -19.7%
86 | CSc1nsc(/C=C/Nc2ccc(O)cc2C)c1C#N | -13.5%
87 | COc1ccc2nc(Nc3nc(CSc4nnnn4-c4ccccc4)cc(=O)[nH]3)nc(C)c2c1 | -42.1%
88 | CC(=O)OC1CC2(C)C(=O)CCC2C2CCc3cc(O)ccc3C12 (centres unmarked) | 1.59%
89 | Cc1ccc(O)c(C(=O)c2cnc3c(c2)c(-c2ccc(F)cc2)c(C#N)c(=O)n3C)c1 | -5.53%
